{
  "source": "the RNAGym collection of RNA variant scans (doi:10.1101/gad.245936.114)",
  "parents": {"B1": {"name": "tRNA (parent)", "chain": "CUCUCGGUAGCCAAGUUGGUUUAAGGCGCAAGACUUUAAUUUAUCACUACGAAAUCUUGAGAUCGGGCGUUCGACUCGCCCCCGGGAGAUUUUUUCCUCGAGCAA"}},
  "note": "Variants at the background level are over-represented here.",
  "data": [
    {"variants_of": "B1", "test": "nonsense suppression (GFP-seq) (ratio to wild type); higher = more function; SUP4oc tRNA, yeast GFP reporter sort-seq", "outline": "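To measure nonsense suppression, tRNA variants from a library carrying ~3% random mutations were integrated into the yeast genome alongside RFP and a GFP ochre reporter under galactose control. Growth took place in raffinose/galactose medium supplemented with 80 mg/L adenine, followed by sorting into GFP/RFP bins and Illumina sequencing of each bin (phred ≥30). For each variant with ≥100 reads and ≥30 cells, the bin median GFP/RFP values were weighted by its estimated cell share per bin and referenced to the unmutated parent tRNA.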", "values": [
      {"variant": "UUCUCGGUAGCCAAGUUGGUUUAAGUCGCAAGAGUUUAAUUUAUCACUACGAAAUCUUGAGAUCGGGCGUUCGACUCGCCCCCGGGAGAUUUUUUCCUCGAGCAA", "note": "[C1U G26U C34G]", "nonsense suppression": "≤ 0.026"},
      {"variant": "UUCUCGGUAGCCAAGUUGGUUUAAGUCGCAAGACUUUAAUUUAUCACUACGAAAUCUUGAGAUCGGGCGUUCAACUCGCCCCCGGGAGAUUUUUUCCUCGAGCAA", "note": "[C1U G26U G73A]", "nonsense suppression": "≤ 0.026"},
      {"variant": "UUCUCGGUAGCCAAGUUGGUUUAAGGCGCAAAACUUUAAUUUAUCACUACGAAAUCUUGAGAUCGGGCGUUCGACUCGCCCCCGGGAGAUUUUUUCCUCGAGCAA", "note": "[C1U G32A]", "nonsense suppression": "≤ 0.026"},
      {"variant": "UUCUCGGUAGCCAAGUUGGUUUAAGGCGCAACACUUUAAUUUAUCACUACGAAAUCAUGAGAUCGGGCGGUCGACUCGCCCCCGGGAGAUUUUUUCCUCGAGCAA", "note": "[C1U G32C U57A U70G]", "nonsense suppression": "≤ 0.026"},
      {"variant": "UUCUCGGUAGCCAAGUUGGUUUAAGGCGCAAUAGUUUAAUUUAUCACUACGAAAUCUUGAGAUCGGGCGUUCGACUCGCCCCCGGGAGAUUUUUUCCUCGAGCAA", "note": "[C1U G32U C34G]", "nonsense suppression": "≤ 0.026"},
      {"variant": "UUCUCGGUAGCCAAGUUGGUUUAAGGCGCAAUACUUUAAUUUAUCACUACGAAAACUUGAGCUCGGCCGUUCGACUCGCCCCCGGGAGAUUUUUUCCUCGAGCAA", "note": "[C1U G32U U55A A62C G67C]", "nonsense suppression": "≤ 0.026"},
      {"variant": "UUCUCGGUAGCCAAGUUGGUUUAAGGCGCAAGACUUUAAUUUAUCACUACGAAAUCUUCAGAUCGGGCGUUCGACUCGCCCCCGGGAGAUUUUUUCCUCGAGCAA", "note": "[C1U G59C]", "nonsense suppression": "≤ 0.026"},
      {"variant": "UUCUCGGUAGCCAAGUUGGUUUAAGGCGCAAGACUUUAAUUUAUCACUACGAAAUCUUCCGAUCGGGCGUUCGACUCGCCCCCGGGAGAUUUUUUCCUCGAGCAA", "note": "[C1U G59C A60C]", "nonsense suppression": "≤ 0.026"},
      {"variant": "UUCUCGGUAGCCAAGUUGGUUUAAGGCGCAAGACUUUAAUUUAUCACUACGAAAUCUUGAAAUCGGGCGUUCGACUCGCCCCCGGGAGAUUUUUUCCUCGAGCAA", "note": "[C1U G61A]", "nonsense suppression": "≤ 0.026"},
      {"variant": "UUCUCGGUAGCCAAGUUGGUUUAAGGCGCAAGACUUUAAUUUAUCACUACGAAAUCUUGAAAUCGGGCGUUCGACUCGCCCCCGUGAGAUUUUUUCCUCGAGCAA", "note": "[C1U G61A G85U]", "nonsense suppression": "≤ 0.026"},
      {"variant": "UUCUCGGUAGCCAAGUUGGUUUAAGGCGCAAGACUUUAAUUUAUCACUACGAAAUCUUGACAUCGGGCGUUCGACUCGCCCCCGGGAGAUUUUUUCCUCGAGCAA", "note": "[C1U G61C]", "nonsense suppression": "≤ 0.026"},
      {"variant": "UUCUCGGUAGCCAAGUUGGUUUAAGGCGCAAGACUUUAAUUUAUCACUACGAAAUCUUGACAUCGGGUGUUCGACUCGCCCCCAGGGGAUUUUUUCCUCGAGCAA", "note": "[C1U G61C C68U G84A A87G]", "nonsense suppression": "≤ 0.026"},
      {"variant": "UUCUCGGUAGCCAAGUUGGUUUAAGGCGCAAGACUUUAAUUUAUCACUACGAAAUCUUGAGAUCCGGCGUGCGAAUCGCCCCCGGGAGAUUUUUUCCUCGAGCAA", "note": "[C1U G65C U71G C75A]", "nonsense suppression": "≤ 0.026"},
      {"variant": "UUCUCGGUAGCCAAGUUGGUUUAAGGCGCAAGACUUUAAUUUAUCACUACGAAAUCUUGAGAUCGAGCGUUCGACUCGCCCCCGGGAGAUUUUUUCCUCGAGCAA", "note": "[C1U G66A]", "nonsense suppression": 0.254},
      {"variant": "UUCUCGGUAGCCAAGUUGGUUUAAGGCGCAAGACUUUAAUUUAUCACUACGAAAUCUUGAGAUCGUGCGUUCGACUCGCCCCCGGAAGAUUUUUUCCUCGAGCAA", "note": "[C1U G66U G86A]", "nonsense suppression": "≤ 0.026"},
      {"variant": "UUCUCGGUAGCCAAGUUGGUUUAAGGCGCAAGACUUUAAUUUAUCACUACGAAAUCUUGAGAUCGGCCGUUCGACUCUCCCCCGGGAGAUUUUUUCCUCGAGCAA", "note": "[C1U G67C G78U]", "nonsense suppression": "≤ 0.026"},
      {"variant": "UUCUCGGUAGCCAAGUUGGUUUAAGGCGCAAGACUUUAAUUUAUCACUACGAAAUCUUGAGAUCGGGCCUUCCACUCGCCCCCGGGAGAUUUUUUCCUCGAGCAA", "note": "[C1U G69C G73C]", "nonsense suppression": "≤ 0.026"},
      {"variant": "UUCUCGGUAGCCAAGUUGGUUUAAGGCGCAAGACUUUAAUUUAUCACUACGAAAUCUUGAGAUCGGGCCUGCGACUCGCCCCCUGGAGAUUUUUUCCUCGAGCAA", "note": "[C1U G69C U71G G84U]", "nonsense suppression": "≤ 0.026"},
      {"variant": "UUCUCGGUAGCCAAGUUGGUUUAAGGCGCAAGACUUUAAUUUAUCACUACGAAAUCUUGAGAUCGGGCUUUCGACUCGCCCCCGGGAGAUUUUUUCCUCGAGCAA", "note": "[C1U G69U]", "nonsense suppression": "≤ 0.026"},
      {"variant": "UUCUCGGUAGCCAAGUUGGUUUAAGGCGCAAGACUUUAAUUUAUCACUACGAAAUCUUGAGAUCGGGCGUUCCACUCGCCCCCGGGAGAUUUUUUCCUCGAGCAA", "note": "[C1U G73C]", "nonsense suppression": "≤ 0.026"},
      {"variant": "UUCUCGGUAGCCAAGUUGGUUUAAGGCGCAAGACUUUAAUUUAUCACUACGAAAUCUUGAGAUCGGGCGUUCGACUCUCCCCCGGGAGAUUUUUUCCUCGAGCAA", "note": "[C1U G78U]", "nonsense suppression": "≤ 0.026"},
      {"variant": "UUCUCGGUAGCCAAGUUGGUUUAAGGCGCAAGACUUUAAUUUAUCACUACGAAAUCUUGAGAUCGGGCGUUCGACUCGCCCCCAGGAGAUUUUUUCCUCGAGCAA", "note": "[C1U G84A]", "nonsense suppression": "≤ 0.026"},
      {"variant": "UUCUCGGUAGCCAAGUUGGUUUAAGGCGCAAGACUUUAAUUUAUCACUACGAAAUCUUGAGAUCGGGCGUUCGACUCGCCCCCCGGAGAUUUUUUCCUCGAGCAA", "note": "[C1U G84C]", "nonsense suppression": "≤ 0.026"},
      {"variant": "UUCUCGGUAGCCAAGUUGGUUUAAGGCGCAAGACUUUAAUUUAUCACUACGAAAUCUUGAGAUCGGGCGUUCGACUCGCCCCCGCGAGCUUUUUUCCUCGAGCAA", "note": "[C1U G85C A89C]", "nonsense suppression": "≤ 0.026"},
      {"variant": "UUCUCGGUAGCCAAGUUGGUUUAAGGCGCAAGACUUUAAUUUAUCACUACGAAAUCUUGAGAUCGGGCGUUCGACUCGCCCCCGUGAGAUUUUUUCCUCGAGCAA", "note": "[C1U G85U]", "nonsense suppression": "≤ 0.026"},
      {"variant": "UAAUCGGUAGCCAGGUUGGUUUAAGGCGCAAGACUUUAAUUUAUCACUACGAAGUGUUGAGAUCGGGCGUUCGACUCGCCCCCGGGAGAUUUUUUCCUCGAGCAA", "note": "[C1U U2A C3A A14G A54G C56G]", "nonsense suppression": "≤ 0.026"},
      {"variant": "UCCUCGGUAGCCAAGUUGGUUUAAGGCGCAAGACUUUAAUUUAUCACUACGAACUCUUGAUAUCGGGCGUUCGACACGCCCCCGGGAGAUUUUUUCCUCGAGCAA", "note": "[C1U U2C A54C G61U U76A]", "nonsense suppression": "≤ 0.026"}
    ]}
  ]
}
